Results taken from PubChem BioAssay AID1345083 (National Center for Advancing Translational Sciences (NCATS), 2018).
About 6,200 (6.6%) of roughly 94,000 compounds were called active. This list was built around the results that the source calls inconclusive (neither active nor inactive); the mix of calls is not that of the screen. Calls come from the whole dose curve; as a rule, active = well fitted inhibition curve with a large enough effect; inconclusive = small, poorly fitted or top-dose-only effect; inactive = flat fitted curve, though single readings scatter. A potency beside an inconclusive call is a rough fit, not a confirmed value.

Test: Cytotoxic Profiling in HEK 293 Cell Line of Diverse Libraries Using Quantitative High-Throughput Screening; note: nearly all actives have a fitted effect of over 60% in size
Conditions: HEK 293 viability, ATP luminescence (CellTiter-Glo), 48-72 h; activity change, negative = cytotoxicity: at 115 µM (top of the series) unless noted; series mostly up to 115 µM
How it was run: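 Pintool-delivered compounds were incubated with HEK 293 cells (250 cells/well) at 37 degree Celsius for 48 or 72 hr. ATP-dependent luminescence (CellTiter-Glo) then reported remaining viable cells.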
% is set by controls: 0 for no effect and ±100 for the full control effect; potency is the fitted concentration of half-maximal effect; tags give direction and shape of the fitted curve.

Compound | Potency | activity change, negative = cytotoxicity | outcome
Cc1ccccc1-n1nc(C)c(CCC(=O)NC2CC2)c1Oc1ccccc1 | inconclusive: 35.5 µM [inhibitor, partial curve, poor fit] | – | –
CC(C)CNc1ccc2c(n1)C(C)(C(=O)NCc1cccnc1)CN(Cc1ccccc1)C2 (stereo not drawn) | inconclusive: 79.4 µM [inhibitor, partial curve, poor fit] | – | –
CS(=O)(=O)N1Cc2ccccc2CC2(CCN(CC3CCNC3)C2)C1 (stereo not drawn) | – | inactive: -0.555% | –
O=C1NCc2ccccc2CC12CCCN(Cc1cc(F)ccc1O)C2 (stereo not drawn) | inconclusive: 100 µM [inhibitor, single point] | – | –
O=C(CCC1CCCC1)N1CCCCCC1CN1CCOCC1 (stereo not drawn) | – | inconclusive: -34.8% [inhibitor] | –
O[C@@H]1CC(CNCc2ccc(F)cc2)(COc2ccc(C(F)(F)F)cn2)C[C@@H]1O (stereo partly drawn) | inconclusive: 56.2 µM [inhibitor, partial curve, poor fit] | – | –
O[C@@H]1C[C@@H](c2nnc3n2CCN(CC2CCCCC2)C3)N(Cc2ccccc2)C1 | – | inactive: -24.2% | –
Cc1cccc(OCC(=O)N2CCC3(CC2)CN(c2ccncn2)CC3CO)c1 (stereo not drawn) | inconclusive: 89.1 µM [inhibitor, single point] | – | –
COc1cc(NC(=O)Cn2ccn3nc(-c4ccc(F)cc4)c(CO)c3c2=O)cc(OC)c1 | inconclusive: 39.8 µM [inhibitor, full curve, poor fit] | – | –
COc1ccc(CCNC(=O)c2cc3cn(C(C)C)cc3s2)cc1OC | – | inactive: -8.74% | –
Cc1ncsc1CN1CCC2(CC1)NCCc1c2[nH]c2ccccc12 | – | inactive: -6.35% | –
Cc1ccccc1C(=O)N1CCC(N2C(=O)c3c(c(C)nn3-c3ccccc3)C2C2CC2)C1 (stereo not drawn) | active: 28.2 µM | – | –
Cn1c(CN2C[C@H](O)C[C@H]2c2nc(-c3ccc4c(c3)OCO4)no2)nc2ccccc21 | inconclusive: 112 µM [inhibitor, partial curve] | – | –
COCCC(=O)N1C[C@@H](COc2cccnc2)[C@H](c2ccccn2)C1 | – | – | inactive
COc1cccc(N2C(=O)NC(=NC3CCCCC3)C23CCCN(Cc2ccsc2)C3)c1 (stereo not drawn) | inconclusive: 44.7 µM [inhibitor, partial curve, poor fit] | – | –
Cc1cnc(C(=O)NC2C[C@H]3CC[C@@H](C2)N3C(=O)CCC2CCCCC2)cn1 (stereo partly drawn) | inconclusive: 10 µM [inhibitor, full curve, poor fit] | – | –
CC(=O)N1CCN(C(=O)c2nc3cccnc3n(C3CC3)c2=O)CC1 | – | inactive: -0.523% [at 172 µM] | –
N#Cc1cccnc1-c1ccc(C(=O)N2CCC(NC(=O)c3cccc(Cl)c3)CC2)cc1 | inconclusive: 56.2 µM [inhibitor, partial curve, poor fit] | – | –
